The other results are listed elsewhere or left out. The list includes weakly bound sequences.

Among the data in PMC4242493 are binding signal (normalized occupancy) values, retold here.

The target in the assay is MaxL homodimer (UniProt P61244). Put plainly: universal protein-binding microarray (PBM). To be noted: PBS-based mixture, 10 nM His-tagged protein dimer, 2% milk, 200 ng/uL BSA, 50 ng/uL salmon testes DNA, 0.02% TX-100; detection with Alexa 488 anti-His …; high values mean tight binding; most listed sequences are background and not binding sites; double strand, one strand shown.
Chain of UniProt P61244 (P61244 whole entry): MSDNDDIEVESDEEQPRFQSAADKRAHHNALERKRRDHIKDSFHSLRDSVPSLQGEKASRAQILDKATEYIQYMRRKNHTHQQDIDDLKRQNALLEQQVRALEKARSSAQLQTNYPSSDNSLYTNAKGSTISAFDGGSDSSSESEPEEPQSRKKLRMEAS
As to AAGCACCA, the binding signal (normalized occupancy) was found to be 0.0761.
CTCTTTAA: the binding signal (normalized occupancy) was 0.0713.
As for GGTCCCTA, the figure is 0.0685; as for AGAGCTTG, 0.0716.
As to CCACCAGC, the binding signal (normalized occupancy) is 0.0738.
In the case of ACTTCATA, the binding signal (normalized occupancy) was found to be 0.0773.
For the sequence AAAGCACC, the binding signal (normalized occupancy) came to 0.0715.
As for CGCTCCGC, the figure is 0.0639.
For CATTCCTA, the binding signal (normalized occupancy) came out at 0.0755.
As for CGGCTGGC, the figure is 0.0661; as for GCTAGCAC, 0.074.
On to CCGGCAAC, for which the binding signal (normalized occupancy) turned out to be 0.0711.
The figure for AGTAATTC is 0.075.
Turning to CTCTGACC, the binding signal (normalized occupancy) was 0.0702.
For the sequence AAGAAGGC, the binding signal (normalized occupancy) is 0.0751.
TGACACCA: the binding signal (normalized occupancy) was 0.0783.
The figure for CAGAGGAC is 0.0665; for GACGAATA it is 0.0754; for ACCCATAT it is 0.088.
CAACTTCA: the binding signal (normalized occupancy) is 0.0784.
As for GGCTGGGA, the binding signal (normalized occupancy) is 0.0757.
As for GTCGTCAC, the figure is 0.0812; as for CCAACGAC, 0.0765; as for CACGGGAG, 0.0792.
Take CGCCGCCC: the binding signal (normalized occupancy) amounted to 0.0695.
Regarding TAATGGGA, the binding signal (normalized occupancy) amounted to 0.076.
With CAAACCGA, the binding signal (normalized occupancy) came out at 0.0737.
Turning to ATGCGCGA, the binding signal (normalized occupancy) stood at 0.0781.
For the sequence ATTCTCAC, the binding signal (normalized occupancy) stood at 0.0833.
The figure for GAAATTTC is 0.0689.
Regarding ACCCGTCT, the binding signal (normalized occupancy) turned out to be 0.0741.
As for GACTTCCC, the figure is 0.0716; as for GCCTAGCA, 0.0681; as for AGCGTTTA, 0.0743.
Turning to AATCCCTC, the binding signal (normalized occupancy) turned out to be 0.0712.
Turning to AGACCCCT, the binding signal (normalized occupancy) was 0.0755.
As for ATATGCAG, the figure is 0.0833.
As for AAGTATAT, the binding signal (normalized occupancy) was found to be 0.0749.
Turning to CAAAGACC, the binding signal (normalized occupancy) was 0.0706.
Consider CGTCCCAG, for which the binding signal (normalized occupancy) was found to be 0.0755.
Turning to CACAGCGC, the binding signal (normalized occupancy) is 0.0708.
Consider GCATTAGA, for which the binding signal (normalized occupancy) is 0.0735.
Consider AAGCTTGG, for which the binding signal (normalized occupancy) was determined as 0.0674.
For GCCGTCAA, the binding signal (normalized occupancy) was 0.0726.
Consider AAATTGTG, for which the binding signal (normalized occupancy) is 0.0741.
Turning to ACTCTTTC, the binding signal (normalized occupancy) came out at 0.0667.
With ATGCTAAA, the binding signal (normalized occupancy) was 0.0751.
Turning to TGACTGCA, the binding signal (normalized occupancy) was 0.0743.
Take ACCAAGTC: the binding signal (normalized occupancy) is 0.071.
Consider ACAAGTTC, for which the binding signal (normalized occupancy) came to 0.0695.
For the sequence ATCATAGG, the binding signal (normalized occupancy) amounted to 0.0774.
In the case of ATATTTTG, the binding signal (normalized occupancy) worked out at 0.0779.
As for TCTCCGCA, the figure is 0.0723.
As for ACTTCCGC, the figure is 0.0759.
In the case of CCAGGTTA, the binding signal (normalized occupancy) amounted to 0.0778.
Take CCGCAATC: the binding signal (normalized occupancy) amounted to 0.0712.
For the sequence CCAGAGAC, the binding signal (normalized occupancy) was 0.0699.
ATCATGAC: the binding signal (normalized occupancy) was found to be 0.0868.
For AGGGCTGC, the binding signal (normalized occupancy) turned out to be 0.0669.
Take ACGGTTCT: the binding signal (normalized occupancy) worked out at 0.071.
Consider GCAAGCGA, for which the binding signal (normalized occupancy) was found to be 0.0697.
On to AACGACGC, for which the binding signal (normalized occupancy) turned out to be 0.073.
Take GGAAGGAC: the binding signal (normalized occupancy) was found to be 0.0715.
ATTTACGC: the binding signal (normalized occupancy) was found to be 0.0786.
Take CGCGTCGA: the binding signal (normalized occupancy) came out at 0.0756.
The figure for CAGAACAC is 0.0765; for AAAATAAC it is 0.0773; for GAATTTAC it is 0.0767.
For the sequence ATTTGCAG, the binding signal (normalized occupancy) is 0.0761.
The figure for GAGCCGAA is 0.0662; for CCTACAGC it is 0.0762; for CTTGACTA it is 0.0726.
The figure for CAGTCCTC is 0.084.
As to TCATGCCA, the binding signal (normalized occupancy) was 0.0861.
The figure for CGATTCGC is 0.0738.
With CTAGTAGA, the binding signal (normalized occupancy) was determined as 0.0718.
Consider GATTTGCC, for which the binding signal (normalized occupancy) was 0.0729.
On to TAGACATA, for which the binding signal (normalized occupancy) was found to be 0.0807.
For the sequence AGTTACAT, the binding signal (normalized occupancy) was found to be 0.0831.
With ATACTCTC, the binding signal (normalized occupancy) came to 0.0748.
For the sequence AAGACTTG, the binding signal (normalized occupancy) was determined as 0.0731.
In the case of ACTGGGCA, the binding signal (normalized occupancy) was determined as 0.0727.
Turning to AAGTCAGC, the binding signal (normalized occupancy) came to 0.0693.
As for ACATGAAG, the figure is 0.0842; as for ACTGATTC, 0.0736.
Turning to ACATGAGA, the binding signal (normalized occupancy) was 0.0971.
With CGTTTTTC, the binding signal (normalized occupancy) stood at 0.0708.
Take CCCGTAAC: the binding signal (normalized occupancy) was 0.0739.
Turning to GAAACAGA, the binding signal (normalized occupancy) is 0.069.
On to AATATGTC, for which the binding signal (normalized occupancy) was 0.0853.
Regarding GTGAATCA, the binding signal (normalized occupancy) was 0.0763.
As to ACTTCAAG, the binding signal (normalized occupancy) came to 0.0754.
In the case of ACTACTCA, the binding signal (normalized occupancy) came to 0.074.
For ATGGGAAA, the binding signal (normalized occupancy) is 0.0774.
Regarding ACAGGGAC, the binding signal (normalized occupancy) came to 0.0671.
On to AAAGATTC, for which the binding signal (normalized occupancy) came out at 0.0828.
On to AGATCCCA, for which the binding signal (normalized occupancy) is 0.0773.
On to ATAAGTTG, for which the binding signal (normalized occupancy) is 0.0731.
As for ACTGGTCC, the figure is 0.0753; as for GACGTTCA, 0.0818.
Take CCGCGGCC: the binding signal (normalized occupancy) stood at 0.0671.
The figure for ATGCGGCG is 0.0869; for ATCAATCA it is 0.0797.
Consider CAAGAAGC, for which the binding signal (normalized occupancy) was determined as 0.0667.
As for TCCCCCGA, the binding signal (normalized occupancy) is 0.0718.
Consider ACTTCCTC, for which the binding signal (normalized occupancy) was 0.0744.
With AGATGATG, the binding signal (normalized occupancy) worked out at 0.0818.
As for ACGGGAGG, the binding signal (normalized occupancy) turned out to be 0.0755.
Take GTCACCGA: the binding signal (normalized occupancy) came out at 0.0699.
Take GGGTCACA: the binding signal (normalized occupancy) turned out to be 0.0805.
For the sequence AGACTCCG, the binding signal (normalized occupancy) came out at 0.0712.
As for AACTCGGG, the figure is 0.0744; as for AACCTCAG, 0.0714; as for CCGGTAGG, 0.0697.
Consider AATGTACC, for which the binding signal (normalized occupancy) worked out at 0.0821.
With CTTGCGAA, the binding signal (normalized occupancy) is 0.0737.
GTGAATAA: the binding signal (normalized occupancy) came out at 0.0848.
As for CGAGATTA, the figure is 0.0734; as for GATGGGAA, 0.078; as for ACCATAAT, 0.0803.
Take AGGAACGC: the binding signal (normalized occupancy) amounted to 0.0729.
As for CTTGCGCA, the figure is 0.0752.
Turning to AATTAGCA, the binding signal (normalized occupancy) turned out to be 0.0695.
Consider ACACGCCT, for which the binding signal (normalized occupancy) was found to be 0.0971.
The figure for GTGGAGCA is 0.0811; for AACGTGAT it is 0.11.
Regarding ACCGAGCT, the binding signal (normalized occupancy) turned out to be 0.0712.
Take AGGATCCG: the binding signal (normalized occupancy) was 0.0689.
For the sequence ACCGTCCC, the binding signal (normalized occupancy) stood at 0.0745.
For the sequence CTTATTGA, the binding signal (normalized occupancy) worked out at 0.0757.
Take ACCAAGCT: the binding signal (normalized occupancy) was found to be 0.0716.
As to ATTGACTC, the binding signal (normalized occupancy) amounted to 0.0745.
TCCAGCAA: the binding signal (normalized occupancy) worked out at 0.0778.
As for CTTTGCTC, the figure is 0.0686; as for GTAGGCAC, 0.0721.
As for GCCTTTCC, the figure is 0.071.
With GGGCTGTA, the binding signal (normalized occupancy) worked out at 0.0762.
As for GAGTACGA, the figure is 0.0735; as for ACTATAGG, 0.0744; as for GGTAAAGA, 0.0763.
The figure for GAAACCTA is 0.073; for GGGAACCC it is 0.0679.
Take CCAGTTGC: the binding signal (normalized occupancy) was found to be 0.0718.
Turning to CAGATGTC, the binding signal (normalized occupancy) was determined as 0.0827.
Regarding GCTATAGC, the binding signal (normalized occupancy) was determined as 0.0697.
With GTGTGCCA, the binding signal (normalized occupancy) was 0.0808.
Take ATAGCGTC: the binding signal (normalized occupancy) is 0.0734.
As for GATTCTGA, the figure is 0.0722; as for GATAATTA, 0.0822.
The figure for CACCAAAG is 0.0696; for GTTTACTA it is 0.0818.
With ATCGGGCC, the binding signal (normalized occupancy) was found to be 0.0723.
As to GGTGATAA, the binding signal (normalized occupancy) was determined as 0.0814.
ATCTACAA: the binding signal (normalized occupancy) came out at 0.0772.
Take ACATTCAA: the binding signal (normalized occupancy) amounted to 0.0775.
The figure for CCGCTAGC is 0.0662; for ACAGTCAC it is 0.0821; for CCATCTTC it is 0.0717.
In the case of ACCTACAG, the binding signal (normalized occupancy) is 0.0776.
As to CCTATTTC, the binding signal (normalized occupancy) worked out at 0.0789.
Take AAAGGTCA: the binding signal (normalized occupancy) was 0.0749.
Consider AACGTTAA, for which the binding signal (normalized occupancy) came to 0.0701.
As to CTGGCGAA, the binding signal (normalized occupancy) worked out at 0.0672.
The figure for ATTACCGA is 0.0757; for ATACCCGA it is 0.0753.
As to ATTGCCTC, the binding signal (normalized occupancy) is 0.0778.
With GAACCGGA, the binding signal (normalized occupancy) stood at 0.0659.
As for CATGCAGA, the figure is 0.0959; as for GCGCCCCA, 0.074; as for GCACAAGA, 0.078.
Consider GCACTATA, for which the binding signal (normalized occupancy) was 0.0783.
As to CATAATGA, the binding signal (normalized occupancy) came to 0.0823.
